About 540 (0.36%) of roughly 150,000 compounds showed an effect of 50% or more. The list shows a part of the results.
These compounds were tested on Plasmodium falciparum (assay: Primary screen in NF54 nanoGlo assay, in single point, at 2uM, 72h; a lower Z score goes with more inhibition). Details: timepoint 72 hour.
Format: functional, Erythrocyte

Structure (SMILES)	% Inhibition [%]	Z score
Cc1ccc2nc(C(=O)Nc3ccccc3N3C(=O)N[C@@H](C)C3=O)c(F)n2c1	0	0.04
Cc1ccc2[nH]c(CN3CCS(=O)(=O)C(C)C3C)cc2c1C (stereo not drawn)	-2	0.46
O=C(NCC(F)(F)c1ccc(F)cc1)NC1CC2CCCCN2C1=O (stereo not drawn)	-10	1.27
O=C(O)CC1(NC(=O)c2ccc3ccccc3c2)CCCC1	22	-2.61
CCN(Cc1cnc2ccccn12)S(=O)(=O)N(C)C	0	-0.02
Cc1ccc2c(c1)-c1c(cnc3cc(-c4ccc(Cl)cc4)nn13)CO2	14	-1.6
Cc1ccc2ncc(C(=O)N3CC(c4ccccc4F)C3)n2c1	-8	1.06
COc1ccc(Cl)cc1N1CCN(Cc2ccc(C(=O)N[C@@H](C)c3ccccc3)o2)CC1	-6	1.05
O=C(c1cc(C(F)(F)F)n[nH]1)N(Cc1ccncc1)C1CCCCC1	-10	1.03
COc1ccc2c(c1)OCC[C@@H]2Nc1nc(C(C)C)no1	1	-0.18
COc1ccc(C2=NNC(c3ccc(F)cc3)=Nc3ccc(F)cc32)cc1	9	-1.09
c1ccc2oc(CN3CCN(c4nccs4)CC3)nc2c1	-1	0.22
COCC1CCN(C(=O)C2CCCCN2C(C)C)C1 (stereo not drawn)	-3	0.49
CC(C)n1cc(CNC[C@H]2CCO[C@@H]2C(C)(C)C)cn1	-2	0.32
Cc1cc(C)n2cc(CNC(=O)C[C@@H]3NC(=O)NC3=O)nc2c1	4	-0.76
O=C(NCCCc1cnc2ncnn2c1)c1ccncc1	8	-1.58
O=C(O)CC[C@H]1CCCN(C(=O)c2cc3ccccc3cc2O)C1	-7	0.98
c1cc(-c2n[nH]c(C3CCCCC3)n2)c2cccnc2c1	-4	0.71
C[C@H](NC(=O)C1(C)CCOCC1)c1ccn(C)n1	3	-0.52
CCOC(=O)c1[nH]c(NC(C)=O)c(C#N)c1C	-10	1.5
CC(C)(C)OC(=O)N/N=C(\N)COc1cc(Cl)cc(Cl)c1	5	-0.52
C/C(C(=O)Nc1ccc(C(=O)c2ccccc2)cc1N)=C(/C)c1nc2cc(C(=O)c3ccccc3)ccc2[nH]1	-20	2.31
CC(C)(C)NC(=O)CNC(=O)c1cccc(Cl)c1	-8	0.68
Cc1cc(C(=O)Nc2ccc3nc(C)sc3c2)no1	-6	0.54
O=C1O[C@H]2CN(c3ccc(Cl)cn3)C[C@H]2N1Cc1ccccn1	3	-0.53
CC(NC(=O)NC1Cc2ccccc2N(C)C1=O)C1Oc2ccccc2C1C (stereo not drawn)	-13	2.34
O=C(C[C@H]1c2ncccc2C(=O)N1Cc1ccc(F)cc1)NCc1ccccc1	-12	2.28

Structure (SMILES)	% Inhibition [%]	Z score
CCc1nnc(N2CCC[C@@]3(CCC(=O)N(CCc4ccccc4)C3)C2)s1	5	-0.66
O=C1N[C@H]2CCC[C@@H]1CN(CC(=O)N1CCc3ccccc31)C2	2	-0.34
O=S(=O)(N[C@H]1CC12CCNCC2)c1ccc(CC(F)(F)F)cc1	-6	0.69
COc1ccc(Cn2nc(C)cc2NC(=O)NCc2cc(C)on2)cc1OC	-12	1.62
CO[C@@H](C)c1nc(CN(C)c2ncnc(-n3cccn3)c2N)cs1	-4	0.51
Cc1oc(-c2cc(F)cc(F)c2)nc1CN1CCc2n[nH]cc2C1	-12	2.46
CC(C)C1CCN(C(=O)c2cccc(-n3cc[nH]c3=O)c2)CC1	-9	1.7
C[C@H](NS(=O)(=O)c1cccc(-n2cnnn2)c1)c1ccncc1	-2	0.23
O=C(O)C[C@H](NCc1cnn(Cc2ccccc2Cl)c1)c1ccsc1	-12	1.19
O=C(CN1C(=O)c2cc(Cl)c(Cl)cc2C1=O)N1CCc2ccccc2C1	4	-0.8
CCOC1=C(CN(C)C)[C@@H](c2ccc(F)cc2)Oc2ccccc21	-5	0.62
COc1ccc(OC)c(C(=O)N(C2CCCC2)C2CC2)c1	-8	1.18
CN(C)Cc1csc(CNC(=O)N[C@H]2CC23CCCCC3)n1	-5	0.81
Cc1nn(-c2nc3ccccc3s2)c(O)c1C(c1ccc(Cl)c(Cl)c1)c1c(C)nn(-c2nc3ccccc3s2)c1O	-10	0.88
COCCN(C)c1nnc(C2COCCO2)n1CC1CCC(C)C1 (stereo not drawn)	-8	1.04
CCCS(=O)(=O)NCc1cccnc1N1CCCCCCC1	-8	0.9
CCc1ccccc1/N=C(/NCc1ccccn1)NC(=O)c1ccc2c(c1)OCO2	-10	0.93
CCc1noc(C)c1C(=O)N[C@H]1CC(=O)N(CC2CCCCC2)C1	-7	1.26
CC1CC(C)CN(S(=O)(=O)c2ccc(S(=O)(=O)Nc3ccon3)cc2)C1 (stereo not drawn)	-6	0.92
CCC[C@H](NC1CCN(C(=O)OCC)CC1)c1nccn1C	-9	1.4
CCCc1sc(C(=O)Nc2nnc(C3CC3)s2)cc1CC	-10	1.24
CCc1cc(-c2nccn2-c2cccc(-c3nc(CC)no3)c2)on1	5	-0.96
Cc1ccc2nc(-c3ccccc3)c(CN3CCOCC3)c(O)c2c1	9	-1.13
CC(NC1CC2CCCCN2C1=O)c1ccc(C(F)F)nc1 (stereo not drawn)	5	-0.74
Cc1cc(CCNC(=O)N2CCOC(C(F)(F)F)C2C)cc(C)c1O (stereo not drawn)	-17	3.33
Cn1cccc1C(=O)N1CCN(Cc2ccncc2)[C@@H]2CS(=O)(=O)C[C@@H]21	-8	1.54
C[C@@H](Cc1nc(CC2CCN(C)CC2)nn1CCO)c1ccccc1	1	-0.16

Reference: ChEMBL document CHEMBL4888484, “Replenishing the malaria drug discovery pipeline: Screening and hit evaluation of the MMV Hit Generation Library 1 (HGL1) against asexual blood stage Plasmodium falciparum ,using a nano luciferase reporter read-out” (2022)
